# This is one part of the list. The data describe in vitro nicking of single-stranded DNA by Rep domains for 1 h at 37 °C with 3 µM enzyme; only the middle of the 90-letter strands is printed. A value is the log2 ratio of uncut reads to the pool without enzyme; the lower, the more was cut; hits are not called. Shares of all reads are compared; values above 0 arise when much of the pool is cut.
# Tested on: T1, Rep nickase domain of tomato golden mosaic virus
# T1 sequence (residues 1-124, tag not shown): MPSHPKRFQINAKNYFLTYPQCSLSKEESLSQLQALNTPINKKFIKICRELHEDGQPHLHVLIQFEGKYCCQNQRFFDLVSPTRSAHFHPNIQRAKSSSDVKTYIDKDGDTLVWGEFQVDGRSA
# Assay: uncleaved DNA left, log2 of reads against the no-enzyme library (log2 ratio); higher = less cleavage (more negative = more Rep cleavage of the k-mer); sequences stand for … in CTCGTCCG…ACCGGAGA
# Protocol: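 A pool of 90-nt single-stranded DNAs with seven random bases just before the constant AC of the nick site (name = the seven bases) was cut by 3 µM recombinant His6-SUMO-tagged Rep nickase domain (300 nM DNA, 50 mM HEPES pH 8.0, 50 mM NaCl, 1 mM MnCl2, 1 h, 37 °C, three replicates). Uncut DNA was amplified and sequenced.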
row,Sequence,uncleaved DNA left (log2)
1,ATTGGAA,-0.0303
2,TTAGTGG,0.115
3,CTAGTGA,0.0416
4,ATTTTGA,-0.098
5,AATATGA,0.115
6,GGGAGAA,0.125
7,TATAGAC,0.0528
8,TCGCCTT,-0.132
9,TTCATGT,-0.147
10,TTCGCCC,-0.152
11,CGTACCT,-0.0631
12,GCCTATC,-0.177
13,CAACTGC,-0.0791
14,GTTGGGC,0.216
15,GAAACGC,0.13
16,CATTCAA,-0.00457
17,TGGATAG,-0.1
18,ACAATTT,0.00775
19,AATAATT,-0.0473
20,CGTCGCG,-0.0693

row,Sequence,uncleaved DNA left (log2)
1,GCGGGCG,-0.0887
2,GCAAATA,0.139
3,TTACTAA,-0.0733
4,AGGAGCC,-0.0896
5,CGCCGGT,0.0104
6,ACCCAAC,-0.0457
7,CCTGCTC,-0.00931
8,GGATGGA,-0.0236
9,GGACTAA,-0.00534
10,CCGTACT,-1.79
11,GAGCTGG,-0.0239
12,ACCACAC,-0.035
13,TGACCAG,0.00156
14,CAGCCTA,0.0215
15,TGTGTGC,0.0372
16,CTCAGTG,-0.0478
17,CTGTGTA,-0.119
18,TCATTCC,-0.0658
19,GAGTTTC,-0.147
20,TTTGGAT,0.0555

# Reference: the supplement of paper PMC7826260
